Measured values as given in article PMC6794377.
Results are given in words; binding and its absence hold for the method and conditions named. Binding seen in cells or lysates may run through a third protein. Some entries that bind do so weakly or less than the wild type. Sequences can lack the tags named with a protein.

Tests used:
[1] = target: T1, hThrRS-L-Ha/A-FLAG (human) (UniProt A2RTX5); assay: co-IP; FLAG-tagged hThrRS-L or mutant overexpressed in HEK293T; IP with anti-FLAG, Dynabeads protein G, 4°C; endogenous partners detected by western blotting
T1 sequence: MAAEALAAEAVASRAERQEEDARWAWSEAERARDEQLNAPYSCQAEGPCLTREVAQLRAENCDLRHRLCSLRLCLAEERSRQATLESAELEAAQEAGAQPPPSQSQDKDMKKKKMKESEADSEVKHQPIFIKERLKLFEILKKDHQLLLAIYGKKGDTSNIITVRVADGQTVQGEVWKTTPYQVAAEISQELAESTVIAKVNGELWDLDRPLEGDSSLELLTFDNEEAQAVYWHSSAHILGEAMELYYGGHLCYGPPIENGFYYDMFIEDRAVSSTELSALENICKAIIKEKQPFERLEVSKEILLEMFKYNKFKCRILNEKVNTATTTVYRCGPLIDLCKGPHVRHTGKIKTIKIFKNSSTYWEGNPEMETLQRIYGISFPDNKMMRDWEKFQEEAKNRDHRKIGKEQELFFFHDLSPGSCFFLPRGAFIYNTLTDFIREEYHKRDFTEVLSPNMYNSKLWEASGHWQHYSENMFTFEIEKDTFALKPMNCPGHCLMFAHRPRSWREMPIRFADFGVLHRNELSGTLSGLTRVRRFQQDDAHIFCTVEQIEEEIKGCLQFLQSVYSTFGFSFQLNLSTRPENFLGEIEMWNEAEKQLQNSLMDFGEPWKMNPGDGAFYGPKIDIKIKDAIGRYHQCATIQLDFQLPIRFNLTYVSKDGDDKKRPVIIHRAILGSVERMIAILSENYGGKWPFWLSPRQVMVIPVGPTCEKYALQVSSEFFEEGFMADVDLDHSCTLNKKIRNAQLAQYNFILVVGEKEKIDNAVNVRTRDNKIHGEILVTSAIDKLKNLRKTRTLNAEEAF

[2] = target: T2, hThrRS-L-Y619D with a C-terminal FLAG tag (human) (UniProt A2RTX5); assay: co-IP; FLAG-tagged hThrRS-L or mutant expressed in HeLa cells; IP with anti-FLAG; endogenous partners detected by western blotting
T2 sequence: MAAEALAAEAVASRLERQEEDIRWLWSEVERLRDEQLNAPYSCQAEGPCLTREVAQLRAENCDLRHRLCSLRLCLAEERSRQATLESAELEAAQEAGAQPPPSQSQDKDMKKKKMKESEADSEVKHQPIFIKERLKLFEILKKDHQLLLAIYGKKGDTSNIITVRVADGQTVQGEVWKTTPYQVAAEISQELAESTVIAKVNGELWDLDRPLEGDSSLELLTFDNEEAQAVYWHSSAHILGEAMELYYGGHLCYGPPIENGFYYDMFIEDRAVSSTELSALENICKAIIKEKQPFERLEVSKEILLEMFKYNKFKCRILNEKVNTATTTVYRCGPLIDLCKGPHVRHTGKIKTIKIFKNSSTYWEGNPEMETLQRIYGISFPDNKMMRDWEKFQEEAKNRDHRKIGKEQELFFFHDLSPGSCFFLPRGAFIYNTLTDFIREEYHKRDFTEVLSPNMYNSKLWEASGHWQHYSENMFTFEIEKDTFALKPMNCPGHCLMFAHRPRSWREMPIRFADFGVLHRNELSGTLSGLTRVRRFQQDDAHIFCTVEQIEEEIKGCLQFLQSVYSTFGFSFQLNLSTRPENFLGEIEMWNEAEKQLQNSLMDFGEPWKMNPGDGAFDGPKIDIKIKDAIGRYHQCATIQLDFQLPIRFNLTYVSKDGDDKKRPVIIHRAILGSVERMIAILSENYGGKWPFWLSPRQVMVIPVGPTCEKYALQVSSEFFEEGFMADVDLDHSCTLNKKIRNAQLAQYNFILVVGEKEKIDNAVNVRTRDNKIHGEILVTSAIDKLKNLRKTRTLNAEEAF

[3] = target: T3, hThrRS-L-S459D with a C-terminal FLAG tag (human) (UniProt A2RTX5); assay: as above
T3 sequence: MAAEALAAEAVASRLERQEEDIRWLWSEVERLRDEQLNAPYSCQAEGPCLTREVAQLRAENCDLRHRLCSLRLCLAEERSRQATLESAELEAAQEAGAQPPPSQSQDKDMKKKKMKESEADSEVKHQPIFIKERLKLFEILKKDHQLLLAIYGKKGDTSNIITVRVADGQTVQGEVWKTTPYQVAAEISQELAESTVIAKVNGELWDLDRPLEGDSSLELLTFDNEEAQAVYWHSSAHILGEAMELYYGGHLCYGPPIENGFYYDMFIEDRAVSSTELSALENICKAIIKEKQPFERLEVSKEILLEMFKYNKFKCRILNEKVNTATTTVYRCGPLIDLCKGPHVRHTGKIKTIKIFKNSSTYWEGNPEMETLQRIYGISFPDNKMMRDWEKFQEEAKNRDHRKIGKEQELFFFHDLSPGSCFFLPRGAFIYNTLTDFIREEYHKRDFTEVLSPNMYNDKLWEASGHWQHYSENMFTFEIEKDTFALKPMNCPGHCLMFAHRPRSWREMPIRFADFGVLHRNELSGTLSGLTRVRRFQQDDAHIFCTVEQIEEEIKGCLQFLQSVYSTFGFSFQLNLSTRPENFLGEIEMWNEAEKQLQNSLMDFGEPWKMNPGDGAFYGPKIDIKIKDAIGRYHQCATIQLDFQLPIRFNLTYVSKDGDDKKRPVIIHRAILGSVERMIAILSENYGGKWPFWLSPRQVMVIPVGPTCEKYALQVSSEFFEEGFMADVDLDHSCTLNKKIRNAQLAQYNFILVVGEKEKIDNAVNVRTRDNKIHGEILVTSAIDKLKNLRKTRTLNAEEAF

B1: native p43 (AIMP1), endogenous in human cells (protein, UniProt Q12904-2 1-336)
chain: MLPAVAVSEPVVLRFMIFCRLLAKMANNDAVLKRLEQKGAEADQIIEYLKQQVSLLKEKAILQATLREEKKLRVENAKLKKEIEELKQELIQAEIQNGVKQIPFPSGTPLHANSMVSENVIQSTAVTTVSSGTKEQIKGGTGDEKKAKEKIEKKGEKKEKKQQSIAGSADSKPIDVSRLDLRIGCIITARKHPDADSLYVEEVDVGEIAPRTVVSGLVNHVPLEQMQNRMVILLCNLKPAKMRGVLSQAMVMCASSPEKIEILAPPNGSVPGDRITFDAFPGEPDKELNPKKKIWEQIQPDLHTNDECVATYKGVPFEVKGKGVCRAQTMSNSGIK
**Q.** Which binding [1] does the source give for B1 here?
**A.** no binding

**Q.** And the binding [2]?
**A.** binds

**Q.** And the binding [3]?
**A.** binds

B2: ArgRS, endogenous in human cells (enzyme, UniProt P54136 1-660)
chain: MDVLVSECSARLLQQEEEIKSLTAEIDRLKNCGCLGASPNLEQLQEENLKLKYRLNILRKSLQAERNKPTKNMINIISRLQEVFGHAIKAAYPDLENPPLLVTPSQQAKFGDYQCNSAMGISQMLKTKEQKVNPREIAENITKHLPDNECIEKVEIAGPGFINVHLRKDFVSEQLTSLLVNGVQLPALGENKKVIVDFSSPNIAKEMHVGHLRSTIIGESISRLFEFAGYDVLRLNHVGDWGTQFGMLIAHLQDKFPDYLTVSPPIGDLQVFYKESKKRFDTEEEFKKRAYQCVVLLQGKNPDITKAWKLICDVSRQELNKIYDALDVSLIERGESFYQDRMNDIVKEFEDRGFVQVDDGRKIVFVPGCSIPLTIVKSDGGYTYDTSDLAAIKQRLFEEKADMIIYVVDNGQSVHFQTIFAAAQMIGWYDPKVTRVFHAGFGVVLGEDKKKFKTRSGETVRLMDLLGEGLKRSMDKLKEKERDKVLTAEELNAAQTSVAYGCIKYADLSHNRLNDYIFSFDKMLDDRGNTAAYLLYAFTRIRSIARLANIDEEMLQKAARETKILLDHEKEWKLGRCILRFPEILQKILDDLFLHTLCDYIYELATAFTEFYDSCYCVEKDRQTGKILKVNMWRMLLCEAVAAVMAKGFDILGIKPVQRM
**Q.** For B2, which binding [1] is on record?
**A.** no binding

**Q.** What about the binding [2] of the same binder?
**A.** binds

**Q.** What about the binding [3] of the same binder?
**A.** binds

B3: native hThrRS, endogenous in HEK293T (enzyme, UniProt P26639 1-723)
chain: MFEEKASSPSGKMGGEEKPIGAGEEKQKEGGKKKNKEGSGDGGRAELNPWPEYIYTRLEMYNILKAEHDSILAEKAEKDSKPIKVTLPDGKQVDAESWKTTPYQIACGISQGLADNTVIAKVNNVVWDLDRPLEEDCTLELLKFEDEEAQAVYWHSSAHIMGEAMERVYGGCLCYGPPIENGFYYDMYLEEGGVSSNDFSSLEALCKKIIKEKQAFERLEVKKETLLAMFKYNKFKCRILNEKVNTPTTTVYRCGPLIDLCRGPHVRHTGKIKALKIHKNSSTYWEGKADMETLQRIYGISFPDPKMLKEWEKFQEEAKNRDHRKIGRDQELYFFHELSPGSCFFLPKGAYIYNALIEFIRSEYRKRGFQEVVTPNIFNSRLWMTSGHWQHYSENMFSFEVEKELFALKPMNCPGHCLMFDHRPRSWRELPLRLADFGVLHRNELSGALTGLTRVRRFQQDDAHIFCAMEQIEDEIKGCLDFLRTVYSVFGFSFKLNLSTRPEKFLGDIEVWDQAEKQLENSLNEFGEKWELNSGDGAFYGPKIDIQIKDAIGRYHQCATIQLDFQLPIRFNLTYVSHDGDDKKRPVIVHRAILGSVERMIAILTENYGGKWPFWLSPRQVMVVPVGPTCDEYAQKVRQQFHDAKFMADIDLDPGCTLNKKIRNAQLAQYNFILVVGEKEKISGTVNIRTRDNKVHGERTISETIERLQQLKEFRSKQAEEEF
**Q.** Which binding [1] does the source give for B3 here?
**A.** binds
